PubChem BioAssay AID504832 (National Center for Advancing Translational Sciences (NCATS), 2011)
Out of some 310,000 compounds screened, about 18,000 (5.8%) were called active. Inconclusive results, whose numbers are uncertain, are shown with a selection of clear calls. Calls come from the whole dose curve; as a rule, active = well fitted inhibition curve with a large enough effect; inconclusive = small, poorly fitted or top-dose-only effect, or another doubt; inactive = no such curve, though single readings can be large or run the other way. No potency is given beside an inconclusive call; the fits are too rough.

Assay: Primary qHTS for delayed death inhibitors of the malarial parasite plastid, 48 hour incubation
Conditions: P. falciparum luciferase growth in erythrocytes; series mostly up to 28.7 µM
Method in brief: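 Erythrocytes infected with P. falciparum carrying an integrated firefly luciferase reporter (2% hematocrit, 0.1% parasitemia final) were exposed to compounds in RPMI 1640 with 0.5% Albumax at 37 C, 5% CO2. Growth inhibition was scored as reduced luminescence.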
Potency is the fitted concentration of half-maximal effect; tags give direction and shape of the fitted curve.

| Structure (SMILES) | Potency |
| --- | --- |
| COc1ccccc1-c1nc2cc3ccccc3cc2nc1-c1ccccc1 | inconclusive [inhibitor, single point] |
| Cc1nc(S/C(=C/c2ccc(-c3cccc(Cl)c3)o2)C(=O)O)n[nH]1 | inconclusive [inhibitor, single point] |
| Cc1cccc(OCCNc2ccc([N+](=O)[O-])cn2)c1 | inactive |
| C[C@@H](C(=O)OCC(=O)NCCc1ccc(S(N)(=O)=O)cc1)N1C(=O)C2CCCCC2C1=O (stereo partly specified) | inactive |
| CC(=O)N/C(=C\c1ccccc1)C(=O)OCC(=O)NC1CCS(=O)(=O)C1 (stereo unspecified) | inactive |
| COC(=O)c1cc(-c2cccs2)nn1-c1ccccc1 | inconclusive [inhibitor, partial curve, poor fit] |
| COc1ccccc1-c1oc2ccccc2c1C#CCCCCO | inconclusive [inhibitor, single point] |
| CCc1ccc2n(-c3ccc(OC)cc3)c([S-])c(C(=O)Nc3cc(C)cc(C)c3)[n+]2c1 | active: 13.1 µM |
| CNc1c(NS(=O)(=O)c2cc(OC)ccc2OC)c(=O)oc2ccccc12 | inconclusive [inhibitor, full curve, poor fit] |
| CCOC(=O)CSc1nc2c(sc(=S)n2-c2ccc(OCC)cc2)c(=O)[nH]1 | inconclusive [inhibitor, partial curve, poor fit] |
| CCCn1nnc(NC(=O)c2cccc(Cl)c2)n1 | inactive |
| CCCCNc1c(-c2cccc(-c3cc(C(C)=O)cs3)c2)nc2cc(C)ccn12 | inconclusive [inhibitor, single point] |
| Cc1cccc(NC(=O)CN2CCN(C(=O)c3cncn3-c3ccc(F)cc3)CC2)c1C | inconclusive [inhibitor, partial curve] |
| O=C(Nc1cccc2c1CCCC2)C1CCN(c2nnnn2-c2ccccc2)CC1 | inconclusive [inhibitor, partial curve] |
| CC1CCN(c2ccc3nnc(CCC(=O)N4CCN(c5ccc(F)cc5)CC4)n3n2)CC1 | active: 5.22 µM |
| COc1ccc(NC(=O)c2[nH]c(C)c(C(C)=O)c2C)cc1Cl | inconclusive [inhibitor, partial curve, poor fit] |
| Cc1cc(C)c(C(=O)CSc2nc3ccccc3c(=O)[nH]2)cc1C | inconclusive [inhibitor, partial curve, poor fit] |
| CC(C)CCNC(=S)Nc1ccc(Br)cc1 | inconclusive [inhibitor, partial curve, poor fit] |
| CCCCn1c(N)c(C(=O)OCC2CCCO2)c2nc3ccccc3nc21 (stereo unspecified) | active: 9.28 µM |
| CCOC(=O)C(/C=C(\C#N)C(=O)OCC)=C(/N)N1CCN(c2c(C)cccc2C)CC1 | inconclusive [inhibitor, partial curve] |
| O=C(Nc1ccccc1Br)c1cc(=O)c2ccccc2o1 | inactive |

| Structure (SMILES) | Potency |
| --- | --- |
| O=C(/C=C/c1ccccc1)NC(NC(=S)Nc1cc(Cl)ccc1Cl)C(Cl)(Cl)Cl (stereo unspecified) | inconclusive [inhibitor, partial curve] |
| Cc1c(OCC(=O)NCCN2CCOCC2)ccc2c1oc(=O)c1ccccc12 | inconclusive [inhibitor, partial curve, poor fit] |
| CCCN(CCC)C(=O)CSc1nc2n[nH]c(C)c2c(=N)n1-c1ccc(OCC)cc1 | inconclusive [inhibitor, single point] |
| Cc1ccc(C(=O)N2CCN(c3ccc([N+](=O)[O-])cc3-n3cccc3)CC2)cc1 | inconclusive [inhibitor, partial curve] |
| Cc1c(Cl)cccc1NC(=S)NCc1cccs1 | inconclusive [inhibitor, single point] |
| Cc1ccc(S(=O)(=O)NCCn2c(C)cc3ccccc32)cc1 | inconclusive [inhibitor, partial curve, poor fit] |
| Cc1ccc2cc(/C=C/C(=O)c3ccco3)c(Cl)nc2c1 | inconclusive [inhibitor, single point] |
| COc1ccc(C)cc1NC(=O)C1CCN(C(=O)Cc2ccccc2)CC1 | inconclusive [inhibitor, full curve, poor fit] |
| CCOc1cc2[nH]c(=O)n(CCCCC(=O)NC3CCCCCC3)c(=O)c2cc1OCC | inconclusive [inhibitor, partial curve, poor fit] |
| COCCNC(=S)N/N=C(\C)c1ccc(OC(F)F)cc1 | inconclusive [inhibitor, single point] |
| CC1CN(C(=O)CCC(=O)NCCCN2CCN(Cc3ccccc3)CC2)c2cc(Cl)ccc2O1 (stereo unspecified) | inconclusive [inhibitor, partial curve, poor fit] |
| COc1ccc2c(c1)C(=O)C(=O)N2CC1COc2ccccc2O1 (stereo unspecified) | inconclusive [inhibitor, single point] |
| CSc1ccc(CN2CCN(CCC(C)C)C(CCO)C2)cc1 (stereo unspecified) | inconclusive [inhibitor, partial curve, poor fit] |
| CCN(CC)S(=O)(=O)c1cccc(C(=O)NC(Cc2c[nH]c3ccccc23)c2nnc3n2CCCCC3)c1 (stereo unspecified) | inconclusive [inhibitor, partial curve, poor fit] |
| COc1cccc(N2C(=O)CC(N3CCN(C(=O)c4ccco4)CC3)C2=O)c1 (stereo unspecified) | inactive |
| O=c1cc(CNc2ccc(Br)cc2)nc2sccn12 | inactive |
| CC1(C)CC(=O)C2=C(C1)N(CCN1CCOCC1)C1=C(C(=O)CC(C)(C)C1)C2c1ccc(Cl)c([N+](=O)[O-])c1 | inconclusive [inhibitor, full curve] |
| CCCC[n+]1ccn(C2=C([O-])c3ccccc3C(=O)/C2=N\S(=O)(=O)c2ccccc2)c1 | active: 1.85 µM |
| CCOC(=O)c1c(/N=C/N(C)C)sc(/C=N/Nc2ccccc2)c1-c1ccccc1Cl | active: 6.57 µM |
| CCOc1ccc(OCCC(=O)OCC(=O)N2CCN(c3ccc(OC)cc3)CC2)cc1 | inactive |
